Experimental data: PMC12747378, “FtsZ phosphorylation modulates tail-core binding to tune cell division in Bacillus subtilis” (PLOS One, 2025)

How the values were obtained:
Test in all cases: ITC; 5 µM full-length FtsZ or FtsZ core in the cell, 50 µM FtsZ tail or MinCN in the syringe; TKEG buffer (50 mM Tris pH 8, 50 mM KCl, 1 mM EDTA, 5% glycerol), 25°C; 20 injections of 2 µL; each replicate fitted
[1] = target: Full-length FtsZ S333E (Bacillus subtilis) (UniProt P17865)
[2] = target: FtsZ core (residues 1-315) M292H/I293W/F294K (Bacillus subtilis) (UniProt P17865)
[3] = target: Full-length FtsZ S333A (Bacillus subtilis) (UniProt P17865)

Kd ([1]; mean of three replicates): 244 nM
stoichiometry N ([1]; mean of three replicates): 0.991
Kd ([1]; single replicate): 252 nM, 256 nM, 223 nM [one table]
stoichiometry N ([1]; single replicate): 1.05, 0.967, 0.961 [one table]
Kd ([2]; mean of three replicates): 402 nM
stoichiometry N ([2]; mean of three replicates): 1.25
Kd ([2]; single replicate): 431 nM, 349 nM, 427 nM [one table]
stoichiometry N ([2]; single replicate): 1.24, 1.38, 1.14 [one table]
Kd ([3]; mean of three replicates): 441 nM
stoichiometry N ([3]; mean of three replicates): 1.03
Kd ([3]; single replicate): 452 nM, 433 nM, 440 nM [one table]
stoichiometry N ([3]; single replicate): 0.931, 1.05, 1.11 [one table]
B1: MinCN, the 92aa N-terminal domain of MinC (domain or fragment, Bacillus subtilis, UniProt Q01463 1-92, looked up)
chain: MKTKKQQYVTIKGTKNGLTLHLDDACSFDELLDGLQNMLSIEQYTDGKGQKISVHVKLGNRFLYKEQEEQLTELIASKKDLFVHSIDSEVIT
notes: MinC, Bacillus subtilis, N-terminal domain, 92 aa; amplified from B. subtilis genomic DNA; Cloned in pGEX-6P-1 with a PreScission site; cleavage of GST not described; source: E. coli BL21 Star (DE3), purified

For part of its entries the source gives two or more results. This is not the full list of results. There may be further records. For part of these data: The values listed for one entry seem to repeat one measurement; a mean can stand among them. Entries with a single value are a further part of the results.
